Laboratory results published in PubChem BioAssay AID686979 (National Center for Advancing Translational Sciences (NCATS), 2013).
The campaign covered roughly 420,000 compounds. About 50,000 (12%) were called active. The shares of active, inactive and inconclusive entries below differ from those in the screen. Calls follow the shape of the dose curve; as a rule, active = well fitted inhibition curve with a large enough effect; inconclusive = small, poorly fitted or top-dose-only effect; inactive = flat fitted curve, though single readings scatter. No potency is given beside an inconclusive call; the fits are too rough.

Test: qHTS for Inhibitors of human tyrosyl-DNA phosphodiesterase 1 (TDP1): qHTS in cells in presence of CPT; also: nearly all actives have a fitted effect of over 55% in size
Settings: chicken DT40 Tdp1-/-;hTDP1 cells + 20 nM CPT, ATP luminescence, 48 h; activity change, negative = growth inhibition: at 46.2 µM (top of the series)
Summary of the method: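 Cell growth measured by CellTiter-Glo luminescence after a minimum 48 h, 37 C compound exposure with 20 nM CPT in Tdp1-knockout DT40 cells stably expressing hTDP1, seeded 400/well; qHTS titration format.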
% is scaled to controls: 0 for no effect and ±100 for the full control effect; potency is read from the fitted curve at half-maximal effect; tags tell the direction and shape of the fitted curve.

| Compound | Potency | activity change, negative = growth inhibition |
| --- | --- | --- |
| O=C(Oc1ccc(Br)cc1C(=S)N1CCOCC1)c1ccc([N+](=O)[O-])cc1[N+](=O)[O-] | active: 20.6 µM |  |
| CC1Cc2ccccc2N1S(=O)(=O)c1cccc(C(=O)NCc2ccco2)c1 (configuration not stated) | inactive |  |
| CN(C)c1ccc2c(c1)Sc1cc(N(C)C)ccc1N2C(=O)c1ccccc1 | inconclusive [inhibitor, partial curve, poor fit] |  |
| CSCCC(C(=O)NC1CCCC1)n1c(-c2ccncc2)nc2ccccc21 (configuration not stated) | inconclusive [inhibitor, single point] |  |
| COC(=O)c1ccccc1NC(=O)CSc1n[nH]c(-c2ccncc2)n1 | inconclusive [inhibitor, partial curve, poor fit] |  |
| C/C(Cl)=C\Cn1c(Nc2ccc(C)cc2)nc2c1c(=O)n(C)c(=O)n2C | inconclusive [inhibitor, partial curve] |  |
| C=CCc1ccccc1OCC(O)CNC(C)C (configuration not stated) | inactive |  |
| Cc1cccc(C)c1OCC(O)CN1CCc2ccccc2C1 (configuration not stated) | active: 4.61 µM |  |
| c1ccc(-n2nnnc2SCc2cccc(CSc3nnnn3-c3ccccc3)n2)cc1 | inconclusive [inhibitor, single point] |  |
| OC[C@H]1O[C@H](c2nc(-c3nc(-c4cccs4)no3)cs2)C[C@@H]1O | inactive |  |
| Cn1ccc2c(-c3cccnc3)cc3c(c21)C1CCC3C1 (configuration not stated) | inconclusive [inhibitor, single point] |  |
| COc1ccc(CNC(=O)Cn2cc([N+](=O)[O-])cn2)cc1 | inactive |  |
| Cc1n[nH]c(C)c1N=Nc1cc(Cl)ccc1Cl | inconclusive [inhibitor, single point] |  |
| C[C@H](O)[C@@]1(O)CC[C@H]2[C@@H]3CC[C@@H]4C[C@H](O)CC[C@]4(C)[C@H]3CC[C@@]21C | inconclusive [inhibitor, partial curve] |  |
| COc1ccc(CC(N)c2csc(NC(=O)c3ccccc3)n2)cc1 (configuration not stated) | inconclusive [inhibitor, single point] |  |
| CCOC(=O)C1=C(C)Nc2nc3ccccc3n2C1c1ccncc1 (configuration not stated) | inconclusive [inhibitor, single point] |  |
| CC(C)Oc1cccc(C(=O)Nc2ccc3oc(-c4ccccc4)nc3c2)c1 | inconclusive [inhibitor, single point] |  |
| COc1ccc2[nH]cc(CCNc3ncncc3-c3ccc4c(c3)OCO4)c2c1 | active: 6.51 µM |  |
| COc1ccc(NC(=O)NCCCN2CCN(c3cc(C)ccc3C)CC2)cc1 | active: 8.2 µM |  |
| Cc1sc2ncnc(N3CCCC(C)C3)c2c1C (configuration not stated) | inconclusive [inhibitor, single point] |  |
| Cc1ccc([C@@H]2C[C@H]3CN(Cc4cccc(Cl)c4)C(=O)[C@]34CCCN24)o1 | inactive |  |
| Cc1ccc(S(=O)(=O)N(CC(=O)Nc2c(C)cccc2C)c2cccc(Cl)c2)cc1 | inconclusive [inhibitor, single point] |  |
| CCc1nnc(NC(=O)c2c(O)c3c([nH]c2=O)CCCC3)s1 | inconclusive [inhibitor, partial curve, poor fit] |  |
| COc1cccc(CNS(=O)(=O)c2ccccc2Br)c1OC | inconclusive [inhibitor, single point] |  |

| Compound | Potency | activity change, negative = growth inhibition |
| --- | --- | --- |
| O=C(Cn1cc(S(=O)(=O)Cc2ccccc2Cl)c2ccccc21)Nc1cccc(C(F)(F)F)c1 | inconclusive [inhibitor, single point] |  |
| COc1ccc(CNc2nc3ccccc3n2Cc2ccc(Cl)cc2)cc1OC | active: 16.4 µM |  |
| O=C1c2[nH]nc(-c3ccccc3O)c2C(c2ccc(F)cc2)N1CC1CCCO1 (configuration not stated) | inconclusive [inhibitor, partial curve] |  |
| Cc1cc(=O)[nH]c(N/N=C/c2ccc3c(c2)OCCO3)n1 | inactive |  |
| Cn1ncc2c(Nc3ccccc3Cl)nc(Nc3ccccc3Cl)nc21 | inactive |  |
| N#Cc1nc(-c2ccco2)oc1NCCCN1CCOCC1 | inactive |  |
| COC(=O)c1cc(C)nc(Nc2nc(C(N)Cc3ccc(Cl)cc3)cs2)n1 (configuration not stated) | inconclusive [inhibitor, single point] |  |
| COC(CNC(=O)CCc1c(C)nc2c(-c3ccccc3)c(C)nn2c1C)OC | inconclusive [inhibitor, single point] |  |
| Cc1ccc(C)c(S(=O)(=O)N2CCCC2CNC(=O)C(=O)NC2CCCCCC2)c1 (configuration not stated) | inconclusive [inhibitor, single point] |  |
| CCOC(=O)c1ccc(NC(=O)CN(c2ccc(C)cc2)S(=O)(=O)c2c(C)nn(C)c2C)cc1 | active: 23.1 µM |  |
| CCOc1ccc(C(=O)NC(=S)Nc2ccc(N3CCC(C)CC3)cc2)cc1[N+](=O)[O-] | inconclusive [inhibitor, single point] |  |
| CCOC(=O)c1c(C)nc2sccn12 | inconclusive [inhibitor, single point] |  |
| CCC(C)c1ccccc1OCCCN(C)Cc1ccccc1 (configuration not stated) | inconclusive [inhibitor, single point] |  |
| O=C(NCC1CCCO1)c1ccc2c(c1)N(Cc1ccc(F)cc1)CCS2 (configuration not stated) | inconclusive [inhibitor, single point] |  |
| CCc1ccc(NC(=O)CSc2nc3ccccc3c(=O)n2CCC(=O)NC2CCCCC2)cc1 | inactive |  |
| COC(=O)c1cc(Br)ccc1-c1ccc(/C=N/n2nnnc2N)o1 | inconclusive [inhibitor, single point] |  |
| O=C(O)Cc1sc(NCCc2ccccc2)nc1-c1ccc(F)cc1 | inactive |  |
| Cc1ccc(Oc2ncc(CN3CCOCC3)s2)cc1 | inactive |  |
| CCC(=O)N1c2ccc(S(=O)(=O)N3CCCCCC3)cc2CC1C (configuration not stated) | inconclusive [inhibitor, single point] |  |
| CCCn1c(=N)c(S(=O)(=O)c2ccccc2)cc2c(=O)n3ccccc3nc21 | inconclusive [inhibitor, partial curve] |  |
| CCc1ccc(-c2nc(CN3CCC(C(=O)N4CCN(c5ccccc5)CC4)CC3)c(C)o2)cc1 | inconclusive [inhibitor, single point] |  |
| COc1ccc2c(c1)[C@H]1[C@H](CO2)[C@H](c2ccccc2)[C@]2(C)C(=O)Nc3ccccc3C(=O)N12 | inconclusive [inhibitor, single point] |  |
| Cc1ccc(NS(=O)(=O)c2ccc(C(=O)NCCCN3CCCC3=O)cc2)cc1 | inconclusive [inhibitor, single point] |  |
| Cc1ccc2c(c1)C(=O)N1c3cc(C)c(C)cc3NC(=O)C1C(=O)N2 (configuration not stated) | inactive |  |

| Compound | Potency | activity change, negative = growth inhibition |
| --- | --- | --- |
| CC(=O)C1=C(C)NC(SCc2cccc3ccccc23)=C(C#N)C1c1ccco1 (configuration not stated) | inconclusive [inhibitor, single point] |  |
| Cc1nccn1-c1cc(C(C)(C)C)nc2c(-c3ccccc3)cnn12 |  | inconclusive: -31% [inhibitor] |
| CCOc1ccccc1NC(=O)c1ccc(OCC)c([N+](=O)[O-])c1 | inconclusive [inhibitor, partial curve, poor fit] |  |
| CCCCC(=O)NC(c1ccc(OC)cc1)c1ccc2cccnc2c1O (configuration not stated) | active: 5.8 µM |  |
| O=C(Nc1cccc(S(=O)(=O)N2CCOCC2)c1)c1ccc2ccccc2n1 | inconclusive [inhibitor, single point] |  |
| O=C(CSc1nnnn1-c1ccc2c(c1)CCC2)NCc1cccs1 |  | inconclusive: -30.8% [inhibitor] |
| CCOc1ccc(N2C(=O)CS/C2=N/NC(=O)COc2ccc3ccccc3c2)cc1 | inconclusive [inhibitor, single point] |  |
| CCc1c(-c2ccc(F)cc2)ncn1Cc1cccc(-c2ccccc2)c1 | active: 11.6 µM |  |
| O=[N+]([O-])c1cc2c(c3cccnc13)COCO2 | inconclusive [inhibitor, partial curve] |  |
| Cc1ccccc1C(=O)NC(=S)Nc1ncccn1 | inactive |  |
| CN(C(=O)c1cccc(C(=O)N(C)c2ccccc2)c1)c1ccccc1 | inactive |  |
| Nc1c(-c2nc(-c3ccccc3Cl)no2)nnn1-c1ccccc1F | inactive |  |
| O=C(O)c1ccc(S(=O)(=O)N2CCOCC2)o1 | inactive |  |
| CCOC(=O)C1(S(=O)(=O)c2ccc(Cl)cc2)CCN(Cc2ccccc2)CC1 | inactive |  |
| COC(=O)c1ccc(CSc2nnc(-c3c[nH]c4ccccc34)n2C)o1 | active: 23.1 µM |  |
| CCOC(=O)Cc1c(C)nc2c(-c3cccc(Br)c3)cnn2c1C | inconclusive [inhibitor, partial curve] |  |
| CCCCOc1cccc(C(=O)Nc2ccc(NC(=O)c3cccs3)cc2)c1 | active: 14.6 µM |  |
| N#Cc1nc(-c2ccc(Cl)cc2)oc1NCCc1ccccn1 | inconclusive [inhibitor, partial curve] |  |
| Cn1cc(S(=O)(=O)N2CCCCC2)cc1C(=O)NCc1ccc(Cl)cc1 | active: 18.4 µM |  |
| CC(=O)C1=CCC(c2ccccc2)N(S(=O)(=O)c2cccc(C)c2)C1 (configuration not stated) | active: 16.4 µM |  |
| Fc1ccc(NC(=S)Nc2ccc(F)c(Cl)c2)cc1Cl | active: 23.1 µM |  |
| CC(C)(C)OC(=O)N[C@@H](COCc1ccccc1)C(=O)N[C@@H](CO)[C@H](O)[C@@H]1C[C@@H]1C(=O)N1CCCC1 | inactive |  |
| COc1ccc(NC(=O)C(NS(=O)(=O)c2cccc3nsnc23)c2ccccc2)cc1 (configuration not stated) | inactive |  |
| CCOC(=O)/C(C#N)=C/c1cc2ccc(C)cc2nc1Cl | active: 4.11 µM |  |
